The other results are listed elsewhere or left out. At the low end of the ranking, values are background and their order means little.

For the assay, the target named is T1, GST-Rok-C97-191 (UniProt O34857).
T1 sequence: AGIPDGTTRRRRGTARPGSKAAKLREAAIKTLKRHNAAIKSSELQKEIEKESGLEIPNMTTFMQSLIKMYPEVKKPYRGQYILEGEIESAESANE
Briefly: protein binding microarray.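 Also: rank score from −0.5 (least bound) to 0.5 (best bound).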 The following applies: Rok is a gene silencer of Bacillus subtilis; high values mean tight binding; most listed sequences are background and not binding sites; double strand, one strand shown.
As to TGTACTAA, the binding signal worked out at 0.191 E-score.

The sequence GAGATGCA registered a binding signal of -0.169 E-score.

Sequence TAGCGCAA showed a binding signal of 0.156 E-score.

In turn, CAGATCCA had a binding signal of -0.202 E-score.

Sequence CCTATCAG showed a binding signal of -0.0255 E-score.

In turn, ATCATAAG registered a binding signal of 0.109 E-score.

CGCTACTC yielded a binding signal of 0.0534 E-score.

The sequence AAATAGAG came in with a binding signal of -0.0395 E-score.

The sequence ACTGACTC yielded a binding signal of 0.038 E-score.

Sequence ATGTCTTG came in with a binding signal of -0.0117 E-score.

In turn, CGCGAAAC displayed a binding signal of 0.0656 E-score.

The sequence CCCCATTC came in with a binding signal of -0.119 E-score.

The sequence AAACCGGA returned a binding signal of 0.034 E-score.

Consider AGCCCCGA, for which the binding signal is -0.198 E-score.

The sequence ACGCGTTA returned a binding signal of 0.104 E-score.

On to GGACATAC, for which the binding signal is -0.0461 E-score.

AACAACAG had a binding signal of -0.0537 E-score.

CTCAGTCA displayed a binding signal of -0.291 E-score.

For CACCGGAG, the binding signal was -0.174 E-score.

For the sequence CAACAAAC, the binding signal was -0.0116 E-score.

As for AACCTCCG, the binding signal was -0.108 E-score.

AACTATAT: the binding signal came out at 0.415 E-score.

In turn, TCTCCCAA displayed a binding signal of -0.0541 E-score.

The sequence CAGCTAGC registered a binding signal of -0.0772 E-score.

For AAACTCAA, the binding signal was determined as 0.104 E-score.

The sequence CACATACA had a binding signal of 0.107 E-score.

CCCTTCAA came in with a binding signal of -0.108 E-score.

In turn, CTCTCAAG returned a binding signal of -0.094 E-score.

Sequence AAGCGCTT came in with a binding signal of -0.25 E-score.

AATGATCT displayed a binding signal of 0.126 E-score.

CTAGCCTC registered a binding signal of -0.000521 E-score.

As for AGTCCATA, the binding signal was -0.0806 E-score.

Sequence AAACTCCT gave a binding signal of 0.0209 E-score.

Consider AAGTTACT, for which the binding signal worked out at 0.123 E-score.

Sequence ACGCACGC displayed a binding signal of -0.152 E-score.

Sequence AATAGGTC had a binding signal of 0.0562 E-score.

AAATAGCC showed a binding signal of 0.0812 E-score.

Sequence AACGGAAT had a binding signal of 0.121 E-score.

In turn, GTTTCCAA returned a binding signal of -0.0629 E-score.

For the sequence CGCGTTTC, the binding signal came out at 0.0796 E-score.

Regarding CAACCAAC, the binding signal amounted to 0.126 E-score.

Take CAATTTCA: the binding signal came to 0.196 E-score.

Sequence CAAACCGC yielded a binding signal of -0.0556 E-score.

ACACTTCA registered a binding signal of 0.0497 E-score.

The sequence AAACACGC had a binding signal of -0.0642 E-score.

For ACGTTGTA, the binding signal came to 0.158 E-score.

For the sequence CTGCGTGA, the binding signal is -0.0106 E-score.

The sequence ACCGTCCA came in with a binding signal of -0.221 E-score.

GACCGGGA had a binding signal of -0.0628 E-score.

With GGTTAATA, the binding signal came to 0.17 E-score.

GGTTCTGA: the binding signal was -0.078 E-score.

For AGGCTGCG, the binding signal is -0.213 E-score.

For GGATATTA, the binding signal amounted to 0.12 E-score.

GAAATACA returned a binding signal of 0.226 E-score.

For GAGCGACC, the binding signal is -0.0691 E-score.

Sequence ATACCCGG returned a binding signal of 0.22 E-score.

The sequence AGATGAAC displayed a binding signal of 0.0958 E-score.

CTCTAAAG returned a binding signal of -0.258 E-score.

Take GAACAGTC: the binding signal is -0.117 E-score.

For the sequence ACACTCAC, the binding signal is -0.00806 E-score.

Take AACCTGAG: the binding signal was -0.155 E-score.

For the sequence CGCGGCGA, the binding signal was -0.212 E-score.

In turn, CCCAAACC had a binding signal of -0.167 E-score.

For ACAAACTC, the binding signal amounted to 0.00994 E-score.

In turn, ACTGATTA gave a binding signal of 0.104 E-score.

CTACGGCC returned a binding signal of -0.14 E-score.

ATGATGTA displayed a binding signal of 0.189 E-score.

Turning to AGGAGCCT, the binding signal was -0.299 E-score.

In turn, GTTAAATA returned a binding signal of 0.303 E-score.

For the sequence TCTGGGCA, the binding signal was -0.19 E-score.

For the sequence GGGTGTAA, the binding signal was -0.000395 E-score.

The sequence AAGGGGCT came in with a binding signal of -0.408 E-score.

The sequence ACTTGCGC gave a binding signal of 0.0949 E-score.

ACGCGCTA: the binding signal was determined as 0.207 E-score.

Sequence CGATACCC yielded a binding signal of -0.0696 E-score.

CGACCCAC displayed a binding signal of 0.0686 E-score.

With ATGAAATA, the binding signal is 0.165 E-score.

GCAAGGGC: the binding signal is -0.191 E-score.

Consider AGGAGTTC, for which the binding signal is -0.0585 E-score.

Turning to GTCCTCTA, the binding signal was -0.266 E-score.

Take CTGGGAAG: the binding signal was -0.0965 E-score.

In the case of ATGATACG, the binding signal came to 0.141 E-score.

Regarding CCGTAAAC, the binding signal is -0.0202 E-score.

In turn, ATACCAGA gave a binding signal of -0.104 E-score.

ACCCCGAG came in with a binding signal of -0.212 E-score.

In turn, GAAAGCGC gave a binding signal of -0.156 E-score.

In turn, AGTGAGAC yielded a binding signal of 6.04e-05 E-score.

ACCCAACG registered a binding signal of 0.0271 E-score.

ATCTCATG returned a binding signal of 0.0778 E-score.

As to ATCCCCAC, the binding signal is -0.147 E-score.

With CTAACTAA, the binding signal amounted to 0.288 E-score.

For the sequence ATGCGTCC, the binding signal is -0.17 E-score.

Sequence ACGGGTAC gave a binding signal of -0.00616 E-score.

Take ATAGCATC: the binding signal was 0.209 E-score.

CCGCACGC displayed a binding signal of -0.306 E-score.

The sequence ATAGTAGG came in with a binding signal of 0.329 E-score.

Turning to GCTTGAAA, the binding signal was 0.0177 E-score.

Take CTGTGAAG: the binding signal is -0.094 E-score.

Turning to CCGCTCAA, the binding signal is -0.107 E-score.

Sequence GGACTCCA registered a binding signal of -0.288 E-score.

GCGTAAGA had a binding signal of 0.0385 E-score.

Turning to GGACCCAA, the binding signal is -0.25 E-score.

The sequence CTTGCGGA displayed a binding signal of -0.0439 E-score.

GTCCCAAA yielded a binding signal of -0.19 E-score.

Consider AGAATTAT, for which the binding signal was 0.248 E-score.

In turn, GCTCCGCA came in with a binding signal of -0.186 E-score.

GAACGATA showed a binding signal of 0.255 E-score.

Consider GATACATC, for which the binding signal is 0.144 E-score.

Turning to AGAGCCAG, the binding signal was -0.194 E-score.

On to GGACTTGA, for which the binding signal is -0.0308 E-score.

CAACACGG showed a binding signal of -0.0228 E-score.

Sequence GGTCTAGA gave a binding signal of -0.0469 E-score.

Regarding ATCGCGAT, the binding signal was found to be 0.206 E-score.

Turning to CCTAGAGC, the binding signal was -0.0824 E-score.

In the case of CGCATGGC, the binding signal was -0.214 E-score.

Turning to CACGATCC, the binding signal was -0.202 E-score.

As for CCTAGTGC, the binding signal was -0.0461 E-score.

AGTACGAG showed a binding signal of 0.125 E-score.

Take ACACAGCT: the binding signal is -0.128 E-score.

Regarding CCGGTTCA, the binding signal was -0.203 E-score.

Take ATAAGAAT: the binding signal is 0.215 E-score.

GTCAACGA displayed a binding signal of -0.108 E-score.

Sequence GAGAGGGC yielded a binding signal of -0.301 E-score.

ACGTTCGC displayed a binding signal of -0.134 E-score.

CTGTTTGC: the binding signal is -0.128 E-score.

The sequence ACGCGCAT gave a binding signal of -0.158 E-score.

For the sequence CGTACGCC, the binding signal is -0.0607 E-score.

Turning to GATTGAGA, the binding signal is 0.0238 E-score.

For AACAACAT, the binding signal worked out at 0.0111 E-score.

Regarding ATGTCTGG, the binding signal is -0.172 E-score.

CGCCCTCA showed a binding signal of -0.284 E-score.

The sequence AATTACTA displayed a binding signal of 0.43 E-score.

In turn, CCCTCGGC showed a binding signal of -0.322 E-score.

Regarding GGGCCTCA, the binding signal is -0.247 E-score.

AGATCATA gave a binding signal of 0.191 E-score.

Sequence ATTTAAGA showed a binding signal of 0.0208 E-score.

Turning to AGAACCTC, the binding signal is -0.0956 E-score.

In turn, GGTTTGAC yielded a binding signal of -0.0128 E-score.

As to AAGTTGAC, the binding signal was 0.0588 E-score.

In turn, AGACCTTC came in with a binding signal of -0.162 E-score.

Sequence CGGCATCC returned a binding signal of -0.204 E-score.

With CGCCTCTA, the binding signal is -0.151 E-score.

Consider AAGGTGTG, for which the binding signal is -0.228 E-score.

Turning to CCCGGCCC, the binding signal is -0.25 E-score.

Take GGCTCATA: the binding signal is -0.312 E-score.

GGTGCGAC yielded a binding signal of -0.322 E-score.

CGGAAAAA had a binding signal of -0.0398 E-score.

Turning to TCATCCCA, the binding signal amounted to 0.0171 E-score.

Regarding ACCAGGCA, the binding signal is -0.261 E-score.

As for CTACTAGA, the binding signal was found to be 0.293 E-score.

ACTGTTTA returned a binding signal of 0.0965 E-score.

Sequence ATCGCAGG yielded a binding signal of -0.154 E-score.

CAAAAGTC showed a binding signal of -0.0954 E-score.

In turn, CGACCTCG had a binding signal of -0.15 E-score.

As to CCATGAAG, the binding signal is -0.227 E-score.

CGGGCAGC gave a binding signal of -0.206 E-score.

As to ACACGAAG, the binding signal is -0.182 E-score.

Regarding CTAAACGC, the binding signal was 0.0606 E-score.

With CTAATTTC, the binding signal amounted to 0.272 E-score.

Take ACCCTGTC: the binding signal was -0.134 E-score.

In turn, CTACATTC came in with a binding signal of 0.0945 E-score.

GAGCTAAC displayed a binding signal of -0.107 E-score.

For CTTTGCGA, the binding signal is -0.146 E-score.

GATGCACC gave a binding signal of -0.0545 E-score.

For AAAGGATC, the binding signal was -0.12 E-score.

In the case of AGATCCGG, the binding signal was 0.0519 E-score.

As for AGCTGCTA, the binding signal is -0.0493 E-score.

AAACAAGT yielded a binding signal of -0.0443 E-score.

In turn, CGCCTAAC registered a binding signal of -0.238 E-score.

The sequence AAAAAATC registered a binding signal of -0.0656 E-score.

In turn, ACATCAGC gave a binding signal of 0.0927 E-score.

In turn, AGGAAACA displayed a binding signal of -0.0302 E-score.
